Experimental data as given in PMC4336329 (PLoS ONE, 2015).
Screen size: about 310,000 compounds; about 2,200 (0.71%) showed an effect of 50% or more. Effects have a minus sign here. This is one part of the list.

target: human ether-à-go-go-related gene (hERG) potassium channel (human, UniProt Q12809); experiment: primary screen, population patch clamp on CHO cells stably expressing hERG
Sequence (Q12809 whole entry, looked up): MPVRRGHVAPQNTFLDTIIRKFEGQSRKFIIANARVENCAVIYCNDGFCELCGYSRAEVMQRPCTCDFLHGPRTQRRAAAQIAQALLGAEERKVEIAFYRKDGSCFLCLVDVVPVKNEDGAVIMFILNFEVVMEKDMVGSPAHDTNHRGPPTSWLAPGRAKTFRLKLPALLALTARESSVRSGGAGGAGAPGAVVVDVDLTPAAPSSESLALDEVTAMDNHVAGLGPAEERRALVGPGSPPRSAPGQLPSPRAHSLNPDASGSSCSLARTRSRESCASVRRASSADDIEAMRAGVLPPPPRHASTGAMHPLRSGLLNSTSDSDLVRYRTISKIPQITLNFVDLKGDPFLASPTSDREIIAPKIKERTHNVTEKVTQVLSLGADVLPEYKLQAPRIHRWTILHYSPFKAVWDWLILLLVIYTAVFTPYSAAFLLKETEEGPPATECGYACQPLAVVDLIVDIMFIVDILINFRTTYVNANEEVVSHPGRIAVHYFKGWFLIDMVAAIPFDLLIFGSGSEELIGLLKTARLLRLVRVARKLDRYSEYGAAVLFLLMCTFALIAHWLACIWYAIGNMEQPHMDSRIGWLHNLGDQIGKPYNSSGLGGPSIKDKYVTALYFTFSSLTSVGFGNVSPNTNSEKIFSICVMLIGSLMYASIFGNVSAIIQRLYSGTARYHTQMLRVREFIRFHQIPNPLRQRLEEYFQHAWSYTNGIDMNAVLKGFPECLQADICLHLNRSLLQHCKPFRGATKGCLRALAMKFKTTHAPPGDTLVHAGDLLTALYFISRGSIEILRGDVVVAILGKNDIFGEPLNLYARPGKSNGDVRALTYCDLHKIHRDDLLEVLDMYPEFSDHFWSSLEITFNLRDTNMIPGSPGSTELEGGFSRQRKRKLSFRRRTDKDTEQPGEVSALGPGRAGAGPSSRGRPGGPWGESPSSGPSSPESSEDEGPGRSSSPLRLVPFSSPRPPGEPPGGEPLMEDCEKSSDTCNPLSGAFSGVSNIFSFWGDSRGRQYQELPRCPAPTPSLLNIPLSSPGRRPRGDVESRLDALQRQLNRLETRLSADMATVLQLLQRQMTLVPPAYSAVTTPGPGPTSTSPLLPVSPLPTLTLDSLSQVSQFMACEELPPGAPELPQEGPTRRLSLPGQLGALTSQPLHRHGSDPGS

Going from `CNc1ccc(Br)cc(C(=O)/C=C/c2ccc3c(c2)OCO3)c1=O` to `O=C(/C=C/c1cccc(F)c1)NCc1ccc2c(c1)OCO2`, the “hERG current change (%, negative = inhibition) at 1uM” value rises from 5.28% to 11.8%.

Going from `CC(C)c1ccc(C(=O)NCCCN(C)C)cc1` to `CC(C)c1ccc(NC(=O)CCNS(=O)(=O)c2cc(Br)cnc2N)cc1`, the “hERG current change (%, negative = inhibition) at 1uM” value falls from 9.58% to 4.93%.

First: COc1ccc(C(CC(=O)Nc2cc([N+](=O)[O-])ccc2OC)c2ccccc2)cc1 (stereo not shown)
Second: COc1ccccc1Oc1ccc2c(c1)C(=O)N(c1ccc(C)cc1)C2=O
The “hERG current change (%, negative = inhibition) at 1uM” value of the first is lower: 11.9% for the first, 12.1% for the second.

First: Cn1cc(C(=O)NCc2ccc(Cl)cc2)c(=O)c2cc(S(=O)(=O)N3CCOCC3)ccc21
Second: O=C(NCc1cccnc1)c1ccc(Cl)c(S(=O)(=O)N2CCOCC2)c1
The “hERG current change (%, negative = inhibition) at 1uM” value of the first is higher: 12% for the first, 0.269% for the second.

First: CCc1cc(=O)oc2cc(OCC(=O)N3C[C@H]4C[C@@H](C3)c3cccc(=O)n3C4)ccc12
Second: CC(=O)C1=C(O)C(=O)N(Cc2ccco2)C1c1ccc2c(c1)OCO2 (stereo not shown)
The “hERG current change (%, negative = inhibition) at 1uM” value of the first is higher: 12.3% for the first, 8.86% for the second.

Going from `CCOCCn1c(N(C)Cc2ccccc2)nc2c1c(=O)[nH]c(=O)n2C` to `COCCn1c(C)cc(C(=O)COC(=O)c2n[nH]c3ccccc23)c1C`, the “hERG current change (%, negative = inhibition) at 1uM” value rises from -6.13% to 7.23%.

First: CCn1ccnc1CNC(=O)CC1C(=O)NCCN1CCCc1ccccc1 (stereo not shown)
Second: COc1cccc(NC(=O)CSc2nc3c(sc4ccccc43)c(=O)n2CCCN2CCCC2)c1
The “hERG current change (%, negative = inhibition) at 1uM” value of the first is higher: 6.92% for the first, -3.14% for the second.

Going from `Cc1ccc(N(Cc2ccc(C(=O)Nc3ccccc3C(=O)NCc3ccco3)cc2)S(C)(=O)=O)cc1C` to `CCc1ccc(S(=O)(=O)Nc2ccc(O)c3ccccc23)cc1`, the “hERG current change (%, negative = inhibition) at 1uM” value rises from -2.11% to 0.287%.

First: O=C(COC(=O)C1CCC1)Nc1cccc(Cl)c1
Second: O=C(COC(=O)/C=C/c1ccco1)Nc1ccccc1
The “hERG current change (%, negative = inhibition) at 1uM” value of the first is lower: 5.76% for the first, 6.35% for the second.

Going from `O=C(NNc1nc2ccc(F)cc2s1)c1cccc(F)c1` to `COc1cccc(C(=O)Nc2ccc(Oc3cccc(C(F)(F)F)c3)nc2)c1`, the “hERG current change (%, negative = inhibition) at 1uM” value falls from 29.4% to 11%.

Going from `Cc1cc(C(C)(C)C)oc1C(=O)O` to `CC(C)(C)C(=O)Nc1ccc(-c2cnco2)cc1`, the “hERG current change (%, negative = inhibition) at 1uM” value rises from 9.58% to 12.7%.

First: CCOC(=O)N/N=C/c1ccccc1OCc1ccc(Cl)cc1
Second: Cn1nccc1C(=O)N/N=C/c1c(O)ccc2ccccc12
The “hERG current change (%, negative = inhibition) at 1uM” value of the first is higher: 18.7% for the first, 9.12% for the second.

Compared with `C=CCn1c(=O)c(C(=O)NC(C)c2ccccc2)c(O)c2ccccc21` (stereo not shown), `CCCCn1nc(C(=O)Nc2ccc(-n3cnnn3)cc2)c2ccccc2c1=O` is lower in “hERG current change (%, negative = inhibition) at 1uM” value: 12.3% for the first, 1.01% for the second.

Compared with `O=C(COC(=O)C12CC3CC(CC(O)(C3)C1)C2)N1CCN(S(=O)(=O)c2ccc(Cl)cc2)CC1`, `CCc1nc2ccccc2nc1N1CCN(S(=O)(=O)c2ccc(Cl)cc2)CC1` is higher in “hERG current change (%, negative = inhibition) at 1uM” value: 8.52% for the first, 16.2% for the second.

Compared with `O=[N+]([O-])c1ccc(-c2ccc(/C=N/Nc3nc(N4CCCC4)nc(N4CCCC4)n3)o2)cc1`, `O=C1NC(=O)C2C1C(c1ccc([N+](=O)[O-])cc1)=NN2Cc1ccccc1` (stereo not shown) is lower in “hERG current change (%, negative = inhibition) at 1uM” value: 20.4% for the first, 5.82% for the second.

First: CSCCC(NC(=O)c1ccccc1Br)C(=O)N1CCCC(C(F)(F)F)C1 (stereo not shown)
Second: O=C([C@H](Cc1ccccc1)NS(=O)(=O)c1ccc(Cl)cc1)N1CC[C@@]2(O)CCCC[C@H]2C1
The “hERG current change (%, negative = inhibition) at 1uM” value of the first is lower: 0.221% for the first, 10.4% for the second.

Going from `c1ccc(CSc2nnc(-c3ccccn3)n2-c2ccccc2)cc1` to `COc1ccc(-c2ccc([C@H]3[C@@H]4C=CCC[C@@]4(C)C(=O)N3Cc3ccccc3)c(F)c2)cc1OC`, the “hERG current change (%, negative = inhibition) at 1uM” value rises from 3.32% to 3.85%.

Compared with `CCC(C)(O)c1[nH]c2ccc(C#N)cc2c1C` (stereo not shown), `Cc1ccc(/C=C(\C#N)c2nc3ccccc3[nH]2)s1` is lower in “hERG current change (%, negative = inhibition) at 1uM” value: 15.3% for the first, -1.83% for the second.

Going from `CCC(CC)c1nn2c(N)c(/C=C3\C(C)=Nc4ccccc43)c(=O)nc2s1` to `CCn1c2ccccc2c2nnc(SCC(=O)NCCOC)nc21`, the “hERG current change (%, negative = inhibition) at 1uM” value falls from 15% to 5.66%.

First: [O-][n+]1cccc(C(O)c2ccccc2)c1 (stereo not shown)
Second: c1cnc(N2CCN(Cc3c[nH]c4ccccc34)CC2)nc1
The “hERG current change (%, negative = inhibition) at 1uM” value of the first is higher: 19.5% for the first, -0.223% for the second.

Going from `NC(=O)C1CCN(C(=O)c2ccc(CS(=O)(=O)c3c(Cl)cccc3Cl)o2)CC1` to `O=C(NC1CCSc2ccccc21)c1ccc(Cl)c(S(=O)(=O)N2CCOCC2)c1` (stereo not shown), the “hERG current change (%, negative = inhibition) at 1uM” value rises from 3.48% to 12.9%.

First: COc1cc(OC)c(C(=O)OCC(=O)Nc2cc(C)on2)cc1OC
Second: CSc1cccc(NC(=O)c2[nH]c(C)c(C(C)=O)c2C)c1
The “hERG current change (%, negative = inhibition) at 1uM” value of the first is higher: 19.1% for the first, 0.678% for the second.

First: O=C(COc1cc2oc(=O)c3c(c2cc1Cl)CCC3)NCC1CCC(C(=O)O)CC1 (stereo not shown)
Second: Cc1cc(C)c2cc(CN(CC3CCCO3)S(=O)(=O)c3ccc4c(c3)OCCO4)c(=O)[nH]c2c1 (stereo not shown)
The “hERG current change (%, negative = inhibition) at 1uM” value of the first is higher: 16.6% for the first, 5.62% for the second.

Going from `COCC1CCN(Cc2nc(COc3ccccc3)no2)C1` (stereo not shown) to `CC(C)(C)[C@@H]1C=C(C(=O)N2CCN(Cc3ccccc3)CC2)O[C@H](OCc2ccc(CO)cc2)C1`, the “hERG current change (%, negative = inhibition) at 1uM” value falls from 15.1% to -4.2%.

Going from `CN1CCC(OC(=O)COc2ccc(F)cc2)CC1.Cl` to `O=C(CSc1nnc2ccc(-c3ccc(F)cc3)nn12)N1CCOCC1`, the “hERG current change (%, negative = inhibition) at 1uM” value rises from -1.62% to 10.7%.

Going from `CCN1CCN(C(=S)Nc2ccc(Cl)cc2)CC1` to `O=C(NCCCn1ccnc1)C1CCCN(S(=O)(=O)c2ccc(F)cc2)C1` (stereo not shown), the “hERG current change (%, negative = inhibition) at 1uM” value rises from -4.98% to 16.3%.

Compared with `COC(=O)c1c(-c2cccs2)csc1NC(=O)CN1CCOCC1`, `O=C(/C=C1\NC2(CCCC2)Cc2ccccc21)N1CCOCC1.O=S(=O)(O)O` is higher in “hERG current change (%, negative = inhibition) at 1uM” value: -17.5% for the first, 3.19% for the second.

For `O=C(NC(NCCCN1CCOCC1)(C(F)(F)F)C(F)(F)F)C1CCCCC1`, the “hERG current change (%, negative = inhibition) at 1uM” value was 9.75%.
